{"source": "paper PMC12040169", "about": "(PLOS Biology, 2025)", "note": "This is one part of the list.", "data": [{"tested_on": "T1, C. trachomatis L2/434/Bu expressing GFP (CTL2-GFP)", "T1 construct": "L2/434/Bu GFP intracellular growth in HeLa cells", "parameters": "species or system HeLa; C. trachomatis total inclusion area by high-content imaging, normalised to DMSO", "settings": "total inclusion area; 28.5 h, 10 µM; inhibitor", "procedure,_shortened": "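Imaging read-out: GFP inclusions and Hoechst nuclei captured by high-content imaging after fixation. Inclusion area/number = chlamydial growth; nuclei count = host cell viability. MIC calculated per earlier method.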", "values": [{"smiles": "CNC(=O)N1CCN(CCOC(c2ccc(F)cc2)c2ccc(F)cc2)CC1", "note": "[CBK024948C]", "% of control remaining": 8.2866}, {"smiles": "COC1C(O)C(CO)OC1n1cnc2c(N)nc(N)nc21", "note": "(centres unmarked) [CBK201241]", "% of control remaining": 106.397}, {"smiles": "O=C(O)Cc1sc(-c2ccc(Cl)cc2)nc1O", "note": "[CBK067730]", "% of control remaining": 102.424}, {"smiles": "COC(=O)Nc1ncc(CN2CCc3ccccc3C2)s1", "note": "[CBK268376]", "% of control remaining": 119.802}, {"smiles": "COCCNc1nc(-c2ccc(F)cc2)cnc1N", "note": "[CBK063591]", "% of control remaining": 105.854}, {"smiles": "COc1ccc(-c2ccc(=O)n(CC(=O)NCc3ccc(C(=O)O)cc3)n2)c(F)c1", "note": "[CBK286776]", "% of control remaining": 77.2005}, {"smiles": "Nc1cccnc1OCCN1CCN(CC(=O)N2CCCCc3ccccc32)CC1", "note": "[CBK007764]", "% of control remaining": 89.277}, {"smiles": "COCc1cn(C2CC(O)C(CO)O2)c(=O)[nH]c1=O", "note": "(centres unmarked) [CBK201230]", "% of control remaining": 100.84}, {"smiles": "Cn1cc(C2CCCCCN2Cc2cc(Cl)ccc2O)cn1", "note": "(centres unmarked) [CBK282941]", "% of control remaining": 98.7122}, {"smiles": "COc1cc(C(=O)Nc2nc3c(C)cccc3s2)cc(OC)c1OC", "note": "[CBK287302]", "% of control remaining": 93.8716}, {"smiles": "COC(=O)c1cccn2cc(CN(CC#N)C3CC3)nc12", "note": "[CBK305821]", "% of control remaining": 89.7371}, {"smiles": "Oc1cc(CCc2ccc(F)cc2)nc2ccnn12", "note": "[CBK281876]", "% of control remaining": 102.886}, {"smiles": "CCc1nnc(NC(=O)COC(=O)CSc2nc(C)cc(C)n2)s1", "note": "[CBK018792]", "% of control remaining": 93.5886}, {"smiles": "COc1cc(CN2CCC(Cc3ccccc3-c3ccccc3)(C(N)=O)CC2)cc(OC)c1", "note": "[CBK285912]", "% of control remaining": 121.27}, {"smiles": "CC(C)(C)OC(=O)N1CCC(C(=O)NCc2ccccn2)CC1", "note": "[CBK305696]", "% of control remaining": 66.6867}, {"smiles": "Cc1ccc2c(c1)oc(=O)n2CCNC(=O)Cc1c[nH]c2ccccc12", "note": "[CBK284473]", "% of control remaining": 105.175}, {"smiles": "NCCSC1CC(=O)N(Cc2cccs2)C1=O", "note": "(centres unmarked) [CBK269047C]", "% of control remaining": 110.956}, {"smiles": "Cc1cnn(CC2CCCN2C(=O)CC2OCCc3ccsc32)c1", "note": "(centres unmarked) [CBK305370]", "% of control remaining": 84.8542}, {"smiles": "Cc1n[n+]2c(C(=O)Nc3ccc(S(=O)(=O)Nc4nccs4)cc3)c(C)[n-]n2c1[N+](=O)[O-]", "note": "[CBK293983]", "% of control remaining": 73.2465}, {"smiles": "COCCNC(=O)C1CCCN(c2nc3c(-c4ccccc4)csc3c(=O)[nH]2)C1", "note": "(centres unmarked) [CBK215497]", "% of control remaining": 109.416}, {"smiles": "COC(=O)[C@@H](C)NC(=O)[C@@H]1CN(C(=O)c2cccc(F)c2)CCN1S(C)(=O)=O", "note": "[CBK289625]", "% of control remaining": 96.0213}, {"smiles": "CCCCC(CC)CN1CNC(=S)NC1", "note": "(centres unmarked) [CBK265404]", "% of control remaining": 110.444}, {"smiles": "COC(=O)C1(Cc2cc(-c3cccc(F)c3)no2)CCOCC1", "note": "[CBK285330]", "% of control remaining": 96.5417}]}]}
